Our source for the EC50 (read off the curve) (µg/ml each Ab) and EC50 values is patent US20230272116A1, “ANTIBODIES WHICH BIND TO CANCER CELLS AND TARGET RADIONUCLIDES TO SAID CELLS” (Hoffmann-La Roche Inc., priority 2020, published 2023).

Assay [1] has as its target T1, Carcinoembryonic antigen (CEA), Carcinoembryonic antigen-related cell adhesion molecule 5 (CEACAM5), on cells (human), P06731.
T1 chain: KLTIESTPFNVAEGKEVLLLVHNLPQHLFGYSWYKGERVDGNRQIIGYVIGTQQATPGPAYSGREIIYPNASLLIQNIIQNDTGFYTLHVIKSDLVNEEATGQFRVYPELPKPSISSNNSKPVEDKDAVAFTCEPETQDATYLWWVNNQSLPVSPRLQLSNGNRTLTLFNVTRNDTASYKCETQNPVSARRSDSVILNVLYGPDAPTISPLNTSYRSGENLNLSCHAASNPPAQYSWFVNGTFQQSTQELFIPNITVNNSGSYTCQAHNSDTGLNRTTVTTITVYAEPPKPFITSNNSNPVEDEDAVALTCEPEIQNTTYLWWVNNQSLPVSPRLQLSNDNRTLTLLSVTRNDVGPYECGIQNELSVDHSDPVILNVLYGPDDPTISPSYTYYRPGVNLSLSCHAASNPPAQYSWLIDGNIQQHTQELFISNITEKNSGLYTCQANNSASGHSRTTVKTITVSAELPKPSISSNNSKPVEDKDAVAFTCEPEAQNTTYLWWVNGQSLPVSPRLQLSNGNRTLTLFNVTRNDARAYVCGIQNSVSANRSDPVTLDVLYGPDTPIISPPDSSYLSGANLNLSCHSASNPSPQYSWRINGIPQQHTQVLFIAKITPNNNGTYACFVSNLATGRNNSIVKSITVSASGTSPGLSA
Kind of assay: FACS on MKN-45 cells; both hemibodies mixed 1:1, concentration given for each antibody; detection with anti-human IgG(H+L) secondary antibody.

The target of assay [2] is T1, Carcinoembryonic antigen (CEA), …. The assay can be described thus: flow cytometry on MKN-45 cells, both SPLIT antibodies combined, detection with anti-huIgG(H+L)-Alexa488.

B1: P1AD8749 + P1AD8592 (combination of both hemibodies, 1:1) (protein)
heavy 1: QVQLVQSGAEVKKPGASVKVSCKASGYTFTEFGMNWVRQAPGQGLEWMGWINTKTGEATYVEEFKGRVTFTTDTSTSTAYMELRSLRSDDTAVYYCARWDFAYYVEAMDYWGQGTTVTVSSASTKGPSVFPLAPSSKSTSGGTAALGCLVKDYFPEPVTVSWNSGALTSGVHTFPAVLQSSGLYSLSSVVTVPSSSLGTQTYICNVNHKPSNTKVDKKVEPKSCDKTHTCPPCPAPEAAGGPSVFLFPPKPKDTLMISRTPEVTCVVVDVSHEDPEVKFNWYVDGVEVHNAKTKPREEQYNSTYRVVSVLTVLHQDWLNGKEYKCKVSNKALGAPIEKTISKAKGQPREPQVCTLPPSRDELTKNQVSLSCAVKGFYPSDIAVEWESNGQPENNYKTTPPVLDSDGSFFLVSKLTVDKSRWQQGNVFSCSVMHEALHNHYTQKSLSLSPG
heavy 2: QVQLVQSGAEVKKPGASVKVSCKASGYTFTEFGMNWVRQAPGQGLEWMGWINTKTGEATYVEEFKGRVTFTTDTSTSTAYMELRSLRSDDTAVYYCARWDFAYYVEAMDYWGQGTTVTVSSASTKGPSVFPLAPSSKSTSGGTAALGCLVKDYFPEPVTVSWNSGALTSGVHTFPAVLQSSGLYSLSSVVTVPSSSLGTQTYICNVNHKPSNTKVDKKV[human IgG1 Fc with changes skipped]GGGGSGGGGSGGGGSGGGGSVTLKESGPVLVKPTETLTLTCTVSGFSLSTYSMSWIRQPPGKALEWLGFIGSRGDTYYASWAKGRLTISKDTSKSQVVLTMTNMDPVDTATYYCARERDPYGGGAYPPHLWGRGTLVTVSS
heavy 3: QVQLVQSGAEVKKPGASVKVSCKASGYTFTEFGMNWVRQAPGQGLEWMGWINTKTGEATYVEEFKGRVTFTTDTSTSTAYMELRSLRSDDTAVYYCARWDFAYYVEAMDYWGQGTTVTVSSASTKGPSVFPLAPSSKSTSGGTAALGCLVKDYFPEPVTVSWNSGALTSGVHTFPAVLQSSGLYSLSSVVTVPSSSLGTQTYICNVNHKPSNTKVDKKV[human IgG1 Fc with changes skipped]
heavy 4: QVQLVQSGAEVKKPGASVKVSCKASGYTFTEFGMNWVRQAPGQGLEWMGWINTKTGEATYVEEFKGRVTFTTDTSTSTAYMELRSLRSDDTAVYYCARWDFAYYVEAMDYWGQGTTVTVSSASTKGPSVFPLAPSSKSTSGGTAALGCLVKDYFPEPVTVSWNSGALTSGVHTFPAVLQSSGLYSLSSVVTVPSSSLGTQTYICNVNHKPSNTKVDKKVEPKSCDKTHTCPPCPAPEAAGGPSVFLFPPKPKDTLMISRTPEVTCVVVDVSHEDPEVKFNWYVDGVEVHNAKTKPREEQYNSTYRVVSVLTVLHQDWLNGKEYKCKVSNKALGAPIEKTISKAKGQPREPQVCTLPPSRDELTKNQVSLSCAVKGFYPSDIAVEWESNGQPENNYKTTPPVLDSDGSFFLVSKLTVDKSRWQQGNVFSCSVMHEALHNHYTQKSLSLSPGGGGGSGGGGSGGGGSGGGGSIQMTQSPSSLSASVGDRVTITCQSSHSVYSDNDLAWYQQKPGKAPKLLIYQASKLASGVPSRFSGSGSGTDFTLTISSLQPEDFATYYCLGGYDDESDTYGFGGGTKVEIK
light: DIQMTQSPSSLSASVGDRVTITCKASAAVGTYVAWYQQKPGKAPKLLIYSASYRKRGVPSRFSGSGSGTDFTLTISSLQPEDFATYYCHQYYTYPLFTFGQGTKLEIKRTVAAPSVFIFPPSDEQLKSGTASVVCLLNNFYPREAKVQWKVDNALQSGNSQESVTEQDSKDSTYSLSSTLTLSKADYEKHKVYACEVTHQGLSSPVTKSFNRGEC
In assay [1], B1 had an EC50 (read off the curve) (µg/ml each Ab) of 0.7.

B2: P1AF0712 + P1AF0713 (both SPLIT antibodies combined) (protein)
heavy 1: QVQLVQSGAEVKKPGASVKVSCKASGYTFTEFGMNWVRQAPGQGLEWMGWINTKTGEATYVEEFKGRVTFTTDTSTSTAYMELRSLRSDDTAVYYCARWDFAYYVEAMDYWGQGTTVTVSSASTKGPSVFPLAPSSKSTSGGTAALGCLVKDYFPEPVTVSWNSGALTSGVHTFPAVLQSSGLYSLSSVVTVPSSSLGTQTYICNVNHKPSNTKVDKKV[human IgG1 Fc with changes skipped]
heavy 2: QVQLVQSGAEVKKPGASVKVSCKASGYTFTEFGMNWVRQAPGQGLEWMGWINTKTGEATYVEEFKGRVTFTTDTSTSTAYMELRSLRSDDTAVYYCARWDFAYYVEAMDYWGQGTTVTVSSASTKGPSVFPLAPSSKSTSGGTAALGCLVKDYFPEPVTVSWNSGALTSGVHTFPAVLQSSGLYSLSSVVTVPSSSLGTQTYICNVNHKPSNTKVDKKVEPKSCDKTHTCPPCPAPEAAGGPSVFLFPPKPKDTLMISRTPEVTCVVVDVSHEDPEVKFNWYVDGVEVHNAKTKPREEQYNSTYRVVSVLTVLHQDWLNGKEYKCKVSNKALGAPIEKTISKAKGQPREPQVCTLPPSRDELTKNQVSLSCAVKGFYPSDIAVEWESNGQPENNYKTTPPVLDSDGSFFLVSKLTVDKSRWQQGNVFSCSVMHEALHNHYTQKSLSLSPGGGGGSGGGGSGGGGSGGGGSQAVVIQESALTTPPGETVTLTCGSSTGAVTASNYANWVQEKPDHLFTGLIGGHNNRPPGVPARFSGSLIGDKAALTIAGTQTEDEAIYFCALWYSDHWVIGGGTKLTVL
heavy 3: QVQLVQSGAEVKKPGASVKVSCKASGYTFTEFGMNWVRQAPGQGLEWMGWINTKTGEATYVEEFKGRVTFTTDTSTSTAYMELRSLRSDDTAVYYCARWDFAYYVEAMDYWGQGTTVTVSSASTKGPSVFPLAPSSKSTSGGTAALGCLVKDYFPEPVTVSWNSGALTSGVHTFPAVLQSSGLYSLSSVVTVPSSSLGTQTYICNVNHKPSNTKVDKKVEPKSCDKTHTCPPCPAPEAAGGPSVFLFPPKPKDTLMISRTPEVTCVVVDVSHEDPEVKFNWYVDGVEVHNAKTKPREEQYNSTYRVVSVLTVLHQDWLNGKEYKCKVSNKALGAPIEKTISKAKGQPREPQVCTLPPSRDELTKNQVSLSCAVKGFYPSDIAVEWESNGQPENNYKTTPPVLDSDGSFFLVSKLTVDKSRWQQGNVFSCSVMHEALHNHYTQKSLSLSPG
heavy 4: QVQLVQSGAEVKKPGASVKVSCKASGYTFTEFGMNWVRQAPGQGLEWMGWINTKTGEATYVEEFKGRVTFTTDTSTSTAYMELRSLRSDDTAVYYCARWDFAYYVEAMDYWGQGTTVTVSSASTKGPSVFPLAPSSKSTSGGTAALGCLVKDYFPEPVTVSWNSGALTSGVHTFPAVLQSSGLYSLSSVVTVPSSSLGTQTYICNVNHKPSNTKVDKKV[human IgG1 Fc with changes skipped]GGGGSGGGGSGGGGSGGGGSHVKLQESGPGLVQPSQSLSLTCTVSGFSLTDYGVHWVRQSPGKGLEWLGVIWSGGGTAYNTALISRLNIYRDNSKNQVFLEMNSLQAEDTAMYYCARRGSYPYNYFDAWGQGTTVTVSSAST
light: DIQMTQSPSSLSASVGDRVTITCKASAAVGTYVAWYQQKPGKAPKLLIYSASYRKRGVPSRFSGSGSGTDFTLTISSLQPEDFATYYCHQYYTYPLFTFGQGTKLEIKRTVAAPSVFIFPPSDEQLKSGTASVVCLLNNFYPREAKVQWKVDNALQSGNSQESVTEQDSKDSTYSLSSTLTLSKADYEKHKVYACEVTHQGLSSPVTKSFNRGEC
As for B2, the 50% effective concentration (EC50) (commonly the concentration at which the effect is half-maximal) in assay [2] stood at 0.9 µg/mL.
